{"source": "patent US6703347B2", "about": "“Isothiazole derivatives and their use as pesticides” (Syngenta Limited, priority 2000, dated 2004)"}
{"system": "root knot nematodes (Meloidogyne incognita)", "test": "whole plant or invertebrate", "conditions": "12.5 ppm by weight, in vitro, no SYNPERONIC NP8", "text": "(§1) SYNPERONIC is a registered trade mark."}
{"compound": "Cc1nsc(NC(=O)C(C)c2ccc3oc(CC(C)C)nc3c2)c1Cl", "note": "(stereo not shown) [Table 1 Compound 6]", "mortality (score) Mi": "0 (represents less than 40% mortality)"}
{"compound": "CCOCN(C(=O)C(C)c1ccc2oc(CC(C)C)nc2c1)c1snc(C)c1Cl", "note": "(stereo not shown) [Table 1 Compound 76]", "mortality (score) Mi": "5 (5 indicates 40-79% mortality)"}
{"compound": "CCOCN(C(=O)C(C)c1ccc2oc(CC(C)(C)C)nc2c1)c1snc(C)c1Cl", "note": "(stereo not shown) [Table 1 Compound 77]", "mortality (score) Mi": "0 (represents less than 40% mortality)"}
{"compound": "CCOCN(C(=O)C(C)c1ccc2oc(CC(F)(F)F)nc2c1)c1snc(C)c1Cl", "note": "(stereo not shown) [Table 1 Compound 78]", "mortality (score) Mi": "0 (represents less than 40% mortality)"}
{"compound": "CCOCN(C(=O)C(C)c1ccc2oc(C(F)(F)C(F)(F)C(F)(F)F)nc2c1)c1snc(C)c1Cl", "note": "(stereo not shown) [Table 1 Compound 80]", "mortality (score) Mi": "0 (represents less than 40% mortality)"}
{"compound": "CCc1nsc(NC(=O)C(C)c2ccc3oc(C)nc3c2)c1Cl", "note": "(stereo not shown) [Table 1 Compound 81]", "mortality (score) Mi": "0 (represents less than 40% mortality)"}
{"compound": "CCc1nsc(NC(=O)C(C)c2ccc3oc(CC(C)C)nc3c2)c1Cl", "note": "(stereo not shown) [Table 1 Compound 86]", "mortality (score) Mi": "0 (represents less than 40% mortality)"}
{"compound": "CCc1nsc(NC(=O)C(C)c2ccc3oc(CC(C)(C)C)nc3c2)c1Cl", "note": "(stereo not shown) [Table 1 Compound 87]", "mortality (score) Mi": "0 (represents less than 40% mortality)"}
{"compound": "CCc1nsc(NC(=O)C(C)c2ccc3oc(CC(F)(F)F)nc3c2)c1Cl", "note": "(stereo not shown) [Table 1 Compound 88]", "mortality (score) Mi": "0 (represents less than 40% mortality)"}
{"compound": "CCc1nsc(NC(=O)C(C)c2ccc3oc(C(F)(F)C(F)(F)C(F)(F)F)nc3c2)c1Cl", "note": "(stereo not shown) [Table 1 Compound 90]", "mortality (score) Mi": "0 (represents less than 40% mortality)"}
{"compound": "CCOCN(C(=O)C(C)c1ccc2oc(CC(C)C)nc2c1)c1snc(CC)c1Cl", "note": "(stereo not shown) [Table 1 Compound 156]", "mortality (score) Mi": "0 (represents less than 40% mortality)"}
{"compound": "CCOCN(C(=O)C(C)c1ccc2oc(CC(C)(C)C)nc2c1)c1snc(CC)c1Cl", "note": "(stereo not shown) [Table 1 Compound 157]", "mortality (score) Mi": "0 (represents less than 40% mortality)"}
{"compound": "CCOCN(C(=O)C(C)c1ccc2oc(C(F)(F)C(F)(F)F)nc2c1)c1snc(CC)c1Cl", "note": "(stereo not shown) [Table 1 Compound 159]", "mortality (score) Mi": "0 (represents less than 40% mortality)"}
{"compound": "CCOCN(C(=O)C(C)c1ccc2oc(C(F)(F)C(F)(F)C(F)(F)F)nc2c1)c1snc(CC)c1Cl", "note": "(stereo not shown) [Table 1 Compound 160]", "mortality (score) Mi": "0 (represents less than 40% mortality)"}
{"compound": "CCC(C(=O)Nc1snc(C)c1Cl)c1ccc2oc(C(F)(F)C(F)(F)C(F)(F)F)nc2c1", "note": "(stereo not shown) [Table 2 Compound 10]", "mortality (score) Mi": "0 (represents less than 40% mortality)"}
{"compound": "CCc1nsc(NC(=O)C(CC)c2ccc3oc(C(F)(F)C(F)(F)C(F)(F)F)nc3c2)c1Cl", "note": "(stereo not shown) [Table 2 Compound 90]", "mortality (score) Mi": "0 (represents less than 40% mortality)"}
{"compound": "Cc1nsc(NC(=O)C(F)c2ccc3oc(CC(C)C)nc3c2)c1Cl", "note": "(stereo not shown) [Table 5 Compound 6]", "mortality (score) Mi": "9 (9 indicates 80-100% mortality)"}
{"compound": "Cc1nsc(NC(=O)C(F)c2ccc3oc(C(F)(F)C(F)(F)C(F)(F)F)nc3c2)c1Cl", "note": "(stereo not shown) [Table 5 Compound 10]", "mortality (score) Mi": "0 (represents less than 40% mortality)"}
{"compound": "CCOCN(C(=O)C(F)c1ccc2oc(CC(C)(C)C)nc2c1)c1snc(C)c1Cl", "note": "(stereo not shown) [Table 5 Compound 77]", "mortality (score) Mi": "0 (represents less than 40% mortality)"}
{"compound": "CCc1nsc(NC(=O)C(F)c2ccc3oc(C(F)(F)C(F)(F)C(F)(F)F)nc3c2)c1Cl", "note": "(stereo not shown) [Table 5 Compound 90]", "mortality (score) Mi": "0 (represents less than 40% mortality)"}
{"compound": "CCOCN(C(=O)C(F)c1ccc2oc(C(F)(F)C(F)(F)C(F)(F)F)nc2c1)c1snc(CC)c1Cl", "note": "(stereo not shown) [Table 5 Compound 160]", "mortality (score) Mi": "0 (represents less than 40% mortality)"}
{"compound": "Cc1nsc(NC(=O)C(O)c2ccc3oc(CC(C)(C)C)nc3c2)c1Cl", "note": "(stereo not shown) [Table 7 Compound 7]", "mortality (score) Mi": "9 (9 indicates 80-100% mortality)"}
{"compound": "CCc1nsc(NC(=O)C(OC)c2ccc3oc(CC(C)C)nc3c2)c1Cl", "note": "(stereo not shown) [Table 9 Compound 86]", "mortality (score) Mi": "5 (5 indicates 40-79% mortality)"}
{"compound": "Cc1nsc(NC(=O)C(=O)c2ccc3oc(CC(C)(C)C)nc3c2)c1Cl", "note": "[Table 10 Compound 7]", "mortality (score) Mi": "0 (represents less than 40% mortality)"}
{"compound": "Cc1nsc(NC(=O)C(=CO)c2ccc3oc(CC(C)(C)C)nc3c2)c1Cl", "note": "[Table 12 Compound 7]", "mortality (score) Mi": "0 (represents less than 40% mortality)"}
{"compound": "Cc1nsc(NC(=O)C(CC#N)c2ccc3oc(CC(C)(C)C)nc3c2)c1Cl", "note": "(stereo not shown) [Table 20 Compound 7]", "mortality (score) Mi": "0 (represents less than 40% mortality)"}
{"compound": "CC(=O)OCC(C(=O)Nc1snc(C)c1Cl)c1ccc2oc(CC(C)(C)C)nc2c1", "note": "(stereo not shown) [Table 28 Compound 7]", "mortality (score) Mi": "0 (represents less than 40% mortality)"}
{"compound": "CCc1nsc(NC(=O)C(C)c2ccc3sc(CC(C)(C)C)nc3c2)c1Cl", "note": "(stereo not shown) [Table 39 Compound 87]", "mortality (score) Mi": "0 (represents less than 40% mortality)"}
{"compound": "Cc1nsc(NC(=O)C(F)c2ccc3sc(CC(C)(C)C)nc3c2)c1Cl", "note": "(stereo not shown) [Table 42 Compound 7]", "mortality (score) Mi": "0 (represents less than 40% mortality)"}
{"compound": "CCc1nsc(NC(=O)C(F)c2ccc3sc(CC(C)(C)C)nc3c2)c1Cl", "note": "(stereo not shown) [Table 42 Compound 87]", "mortality (score) Mi": "0 (represents less than 40% mortality)"}
{"compound": "CCOCN(C(=O)/C=C/c1ccc2oc(CC(C)(C)C)nc2c1)c1snc(C)c1Cl", "note": "[Table 81 Compound 77]", "mortality (score) Mi": "0 (represents less than 40% mortality)"}
{"compound": "CCOCN(C(=O)CCc1ccc2oc(CC(C)(C)C)nc2c1)c1snc(C)c1Cl", "note": "[Table 82 Compound 77]", "mortality (score) Mi": "0 (represents less than 40% mortality)"}
{"system": "root knot nematodes (Meloidogyne incognita)", "test": "whole plant or invertebrate", "conditions": "Meloidogyne incognita, read-out: mortality (score) Mi", "text": "as §1", "units": {"mortality at 12.5 ppm": "%"}}
{"compound": "Cc1nsc(NC(=O)C(C)c2ccc3oc(CC(F)(F)F)nc3c2)c1Cl", "note": "(stereo not shown) [Table 1 Compound 8, N-(4-chloro-3-methylisothiazol-5-yl)-2-[2-(2,2,2-trifluoroethyl)benzoxazol-5-yl]propionamide]", "mortality at 12.5 ppm": "< 40"}
{"compound": "Cc1nsc(NC(=O)C(C)(F)c2ccc3oc(CC(C)(C)C)nc3c2)c1Cl", "note": "(stereo not shown) [Table 6 Compound 7, N-(4-chloro-3-methylisothiazol-5-yl)-2-[2-(2,2-dimethylpropyl)benzoxazol-5-yl]-2-fluoropropionamide]", "mortality at 12.5 ppm": "< 40"}
